About 300 (9.4%) of roughly 3,200 compounds showed activity. Only a part is listed here, and it is no random draw.
Test system: A673/TR/shEF
Assay: cell viability (LOESS-normalised, relative to median of negative controls) (log2 ratio); higher = more viable cells (less compound effect), active = hit call of the paper (over 3 MAD below the median)
Settings: treatment time: 72 h
Method in brief: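 Doxycycline, present or absent from 24 h before compounds, was used to induce EWS-FLI1 shRNA knockdown in A673/TR/shEF Ewing sarcoma cells at 1,500 per well in 384-well plates. Cells then received library compounds at two or more concentrations, or DMSO controls, for three days. Viability was measured by CellTiter-Glo luminescence on an Envision reader, and per-plate LOESS correction, division by the negative-control median and log2 transformation followed.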

[1] = 0.025 µM, library screen: screen1, EWS-FLI1 expression: high (no doxycycline)
[2] = 0.025 µM, library screen: screen1, EWS-FLI1 expression: low (doxycycline-induced shRNA knockdown)
[3] = 0.25 µM, library screen: screen1, EWS-FLI1 expression: high (no doxycycline)
[4] = 0.25 µM, library screen: screen1, EWS-FLI1 expression: low (doxycycline-induced shRNA knockdown)
[5] = 0.25 µM, library screen: screen2, EWS-FLI1 expression: high (no doxycycline)
[6] = 0.25 µM, library screen: screen2, EWS-FLI1 expression: low (doxycycline-induced shRNA knockdown)
[7] = 2.5 µM, library screen: screen1, EWS-FLI1 expression: high (no doxycycline)
[8] = 2.5 µM, library screen: screen1, EWS-FLI1 expression: low (doxycycline-induced shRNA knockdown)
[9] = 2.5 µM, library screen: screen2, EWS-FLI1 expression: high (no doxycycline)
[10] = 2.5 µM, library screen: screen2, EWS-FLI1 expression: low (doxycycline-induced shRNA knockdown)
[11] = 25 µM, library screen: screen1, EWS-FLI1 expression: high (no doxycycline)
[12] = 25 µM, library screen: screen1, EWS-FLI1 expression: low (doxycycline-induced shRNA knockdown)
[13] = 0.103 µM, library screen: screen3, EWS-FLI1 expression: high (no doxycycline)
[14] = 0.103 µM, library screen: screen3, EWS-FLI1 expression: low (doxycycline-induced shRNA knockdown)
[15] = 0.308 µM, library screen: screen3, EWS-FLI1 expression: high (no doxycycline)
[16] = 0.308 µM, library screen: screen3, EWS-FLI1 expression: low (doxycycline-induced shRNA knockdown)
[17] = 0.926 µM, library screen: screen3, EWS-FLI1 expression: high (no doxycycline)
[18] = 0.926 µM, library screen: screen3, EWS-FLI1 expression: low (doxycycline-induced shRNA knockdown)
[19] = 2.8 µM, library screen: screen3, EWS-FLI1 expression: high (no doxycycline)
[20] = 2.8 µM, library screen: screen3, EWS-FLI1 expression: low (doxycycline-induced shRNA knockdown)
[21] = 8.3 µM, library screen: screen3, EWS-FLI1 expression: high (no doxycycline)
[22] = 8.3 µM, library screen: screen3, EWS-FLI1 expression: low (doxycycline-induced shRNA knockdown)
[23] = 25 µM, library screen: screen3, EWS-FLI1 expression: high (no doxycycline)
[24] = 25 µM, library screen: screen3, EWS-FLI1 expression: low (doxycycline-induced shRNA knockdown)

Measured: cell viability (log2)

COC(=O)/C=C/c1cc(O)ccc1O
inactive: [1] 0.177 | [2] 0.0349 | [3] 0.18 | [4] 0.0134 | [5] 0.108 | [6] 0.184 | [8] -0.137 | [9] 0.0473 | [10] 0.11
active: [7] -0.379 | [11] -0.809 | [12] -0.511

C[N+](C)(C)CCO
inactive: [3] 0.0789 | [4] 0.0426 | [5] 0.169 | [6] 0.123 | [7] 0.0401 | [8] 0.0832 | [9] 0.0772 | [10] 0.05

CN(C)CCOC(C)(c1ccccc1)c1ccccn1 (centres undefined)
inactive: [3] 0.175 | [4] 0.137 | [5] 0.163 | [6] 0.0565 | [7] 0.19 | [8] 0.165 | [9] 0.0665 | [10] 0.0975

COc1cccc(-c2cc(=O)c3ccccc3o2)c1N
0.278: [3]
inactive: [1] 0.268 | [2] -0.0228 | [4] -0.0268 | [5] 0.18 | [6] 0.11 | [8] 0.0789 | [9] 0.195 | [10] 0.139 | [11] -0.0514 | [12] 0.0727
active: [7] -0.37

C[C@@H](O)[C@H]1C(=O)N2C(C(=O)O)=C(S[C@@H]3CN[C@H](CNS(N)(=O)=O)C3)[C@H](C)[C@H]12
inactive: [13] 0.033 | [14] 0.0995 | [15] -0.0322 | [16] 0.0266 | [17] -0.0529 | [18] 0.0199 | [19] 0.0539 | [20] 0.00336 | [21] -0.00784 | [22] 0.05 | [23] 0.0267 | [24] 0.0394

CC1=C[C@@H]2[C@@H](CC1)[C@](C)(O)CC[C@H]2C(C)C
inactive: [3] 0.0888 | [4] 0.0211 | [7] 0.101 | [8] 0.102

CC(C)(C#N)c1cc(Cn2cncn2)cc(C(C)(C)C#N)c1
inactive: [13] 0.0557 | [14] 0.0542 | [15] 0.133 | [16] 0.115 | [17] 0.078 | [18] 0.0366 | [19] 0.103 | [20] 0.0298 | [21] 0.0453 | [22] 0.0596 | [23] 0.173 | [24] 0.0922

C=CC(C1=CC(=O)C(OC)=CC1=O)c1ccc(OC)cc1 (centres undefined)
inactive: [3] 0.133 | [4] 0.135 | [7] 0.157 | [8] 0.265

COc1cc2nccc(Oc3ccc(NC(=O)Nc4cc(C)on4)c(Cl)c3)c2cc1OC
inactive: [13] 0.0507 | [14] 0.0378 | [15] 0.0179 | [16] 0.0528 | [17] 0.0271 | [18] 0.088 | [19] 0.141 | [20] 0.131 | [21] 0.156 | [22] 0.204 | [23] -0.04 | [24] 0.155

COc1cc(C(=O)N2CCOCC2)c([N+](=O)[O-])cc1OC
inactive: [3] 0.0993 | [4] 0.0316 | [7] 0.0928 | [8] -0.0159

Oc1cc(O)c2c(c1)O[C@H](c1cc(O)c(O)c(O)c1)[C@H](O)C2
inactive: [3] 0.0176 | [4] 0.0257 | [7] 0.0607 | [8] 0.0489

O=C(O)c1cc(=O)cc(C(=O)O)[nH]1
inactive: [5] 0.183 | [6] 0.138 | [9] 0.0402 | [10] 0.037

CN1CCc2c(cc(O)c(O)c2Cl)C(c2cccc(Cl)c2)C1 (centres undefined)
inactive: [5] 0.0833 | [6] 0.137 | [9] 0.229 | [10] 0.0573

COCc1cc(C)nc(SCC(=O)NC(C)(C)C)c1C#N
inactive: [3] 0.122 | [4] 0.0633 | [7] 0.0645 | [8] -0.0386

COc1ccc2c(c1)c(CC(=O)O)c(C)n2C(=O)c1ccc(Cl)cc1
inactive: [13] 0.0635 | [14] 0.0929 | [3] 0.0764 | [4] 0.0215 | [5] 0.146 | [6] 0.151 | [15] 0.173 | [16] 0.108 | [17] 0.137 | [18] 0.0521 | [7] 0.151 | [8] 0.0769 | [9] 0.181 | [10] 0.129 | [19] 0.0767 | [20] 0.0496 | [21] 0.0711 | [22] 0.105 | [23] 0.189 | [24] 0.138

Nc1nc2ccc(OC(F)(F)F)cc2s1
inactive: [13] 0.0928 | [14] 0.042 | [5] 0.203 | [6] 0.136 | [15] 0.0938 | [16] 0.128 | [17] 0.0938 | [18] 0.0398 | [9] 0.181 | [10] 0.143 | [19] 0.053 | [20] 0.0407 | [21] 0.0456 | [22] 0.0295 | [23] 0.0947 | [24] 0.0465

Oc1cc(O)c2c(c1)O[C@H](c1ccc(O)c(O)c1)[C@H](O)C2
inactive: [3] 0.0624 | [4] 0.0382 | [7] 0.061 | [8] 0.0218

C(=C\c1ccccc1)/CN1CCN(C(c2ccccc2)c2ccccc2)CC1
inactive: [5] 0.0863 | [6] 0.048 | [9] 0.146 | [10] 0.101

Cn1c(=O)[nH]c(=O)c2[nH]cnc21
inactive: [3] 0.136 | [4] -0.0262 | [7] 0.111 | [8] 0.0112

O=C(C1CCCCC1)N1CC(=O)N2CCc3ccccc3C2C1 (centres undefined)
inactive: [3] 0.0937 | [4] 0.0968 | [5] 0.175 | [6] 0.0597 | [7] 0.113 | [8] 0.159 | [9] 0.105 | [10] 0.0556

COc1ccc2c(c1OC)C(=O)O[C@@H]2[C@H]1c2c(cc3c(c2OC)OCO3)CCN1C
inactive: [3] -0.0184 | [4] 0.141 | [5] 0.0677 | [6] 0.143 | [7] 0.089 | [8] 0.145 | [9] 0.125 | [10] 0.0492

COc1cc(CN2CCN(Cc3cccc(Cl)c3)CC2)c([N+](=O)[O-])cc1OC
inactive: [3] 0.103 | [4] 0.0472 | [7] 0.18 | [8] 0.111

CC(C)C[C@H](NC(=O)[C@H](O)[C@H](N)Cc1ccccc1)C(=O)O
inactive: [5] 0.14 | [6] 0.0402 | [9] 0.0931 | [10] 0.0118

CN(C)CC(=O)Nc1ccc2[nH]c(=O)c3ccccc3c2c1
inactive: [5] 0.195 | [6] 0.036 | [9] 0.0668 | [10] 0.0496

CC[N+](CC)(CC)CCOc1ccc(/C=C/c2ccccc2)cc1
inactive: [5] 0.171 | [6] 0.105 | [9] 0.131 | [10] 0.0953

Cc1c(NC(=O)Nc2ccc3ccccc3c2)c(=O)n(-c2ccccc2)n1C
inactive: [3] 0.0897 | [4] 0.113 | [7] 0.056 | [8] 0.16

CC(=O)O[C@H]1CC[C@@]2(C)C(=CC[C@@H]3[C@@H]2CC[C@]2(C)C(c4cccnc4)=CC[C@@H]32)C1
inactive: [13] 0.019 | [14] 0.0367 | [15] -0.015 | [16] 0.0394 | [17] 0.0136 | [18] 0.00409 | [19] 0.0331 | [20] 0.0286 | [21] 0.0532 | [22] 0.0629 | [23] -0.0109 | [24] 0.0721

C=C1C(CCl)(CCl)C2(Cl)C(Cl)C(Cl)C1(Cl)C2(Cl)Cl (centres undefined)
inactive: [3] 0.0656 | [4] 0.021 | [7] 0.0692 | [8] 0.132

CN(C)C(=O)C(CCN1CCC(O)(c2ccc(Cl)cc2)CC1)(c1ccccc1)c1ccccc1
inactive: [13] 0.00244 | [14] 0.0453 | [4] 0.13 | [5] 0.173 | [6] 0.124 | [15] 0.0107 | [16] 0.129 | [17] 0.0214 | [18] 0.106 | [7] 0.201 | [8] -0.00656 | [9] 0.157 | [10] 0.0931 | [19] 0.0795 | [20] 0.0725 | [21] 0.0781 | [22] 0.0661 | [23] 0.0382 | [24] 0.0763
0.439: [3]

O=C(O)C1CCCNC1 (centres undefined)
inactive: [3] 0.0566 | [4] 0.0758 | [5] -0.0538 | [6] 0.129 | [7] 0.131 | [8] 0.067 | [9] 0.203 | [10] 0.169

NC(N)=NC(N)=Nc1cccc(Cl)c1
inactive: [5] 0.145 | [6] 0.0324 | [9] 0.0567 | [10] 0.0608

C[C@H]1O[C@@H](O[C@H]2[C@@H](O)C[C@H](O[C@H]3[C@@H](O)C[C@H](O[C@H]4CC[C@@]5(C)[C@H](CC[C@@H]6[C@@H]5C[C@@H](O)[C@]5(C)[C@@H](C7=CC(=O)OC7)CC[C@]65O)C4)O[C@@H]3C)O[C@@H]2C)C[C@H](O)[C@@H]1O
inactive: [3] -0.0229 | [4] -0.153
active: [7] -2.32 | [8] -1.91

CC(C)=CCC[C@@H](C)[C@H]1CC[C@@]2(C)C3=C(CC[C@]12C)[C@@]1(C)CC[C@H](O)C(C)(C)[C@@H]1CC3
inactive: [3] 0.101 | [4] -0.00557 | [7] 0.158 | [8] 0.0178
